{"source": "the GPR68 mutational scans of Howard et al. (2025)", "parents": {"B1": {"name": "GPR68, Q15743 (parent)", "chain": "MGNITADNSSMSCTIDHTIHQTLAPVVYVTVLVVGFPANCLSLYFGYLQIKARNELGVYLCNLTVADLFYICSLPFWLQYVLQHDNWSHGDLSCQVCGILLYENIYISVGFLCCISVDRYLAVAHPFRFHQFRTLKAAVGVSVVIWAKELLTSIYFLMHEEVIEDENQHRVCFEHYPIQAWQRAINYYRFLVGFLFPICLLLASYQGILRAVRRSHGTQKSRKDQIQRLVLSTVVIFLACFLPYHVLLLVRSVWEASCDFAKGVFNAYHFSLLLTSFNCVADPVLYCFVSETTHRDLARLRGACLAFLTCSRTGRAREAYPLGAPEASGKSGAQGEEPELLTKLHPAFQTPNSPGSGGFPTGRLA"}}, "key": {"[1]": {"variants_of": "B1", "test": "cAMP reporter score (Enrich2 score, wild type = 0); higher = more signal; HEK293T, FACS bins"}, "[2]": {"variants_of": "B1", "test": "surface expression score (Enrich2 score, wild type = 0); higher = more signal; HEK293T, FACS bins"}}, "note": "The least precise scores are not listed. Two further conditions of the source, in which the scores hardly spread, are not listed. Names with del lack the residues named; names with ins carry added residues between the positions named. For part of these data: The data file names ogerin without a concentration."}
{"variant": "A180_W181insGSG", "values": [{"measurement": "cAMP reporter score", "setting": "[1]; pH 5.5", "result": -0.602}, {"measurement": "cAMP reporter score", "setting": "[1]; pH 6", "result": -1.27}, {"measurement": "cAMP reporter score", "setting": "[1]; pH 6, modulator: ogerin", "result": -0.711}, {"measurement": "cAMP reporter score", "setting": "[1]; pH 6.5, modulator: ogerin", "result": -1.83}, {"measurement": "surface expression score", "setting": "[2]", "result": -1.03}]}
{"variant": "W181_Q182insGSG", "values": [{"measurement": "cAMP reporter score", "setting": "[1]; pH 5.5", "result": 0.329}, {"measurement": "cAMP reporter score", "setting": "[1]; pH 6", "result": -0.139}, {"measurement": "cAMP reporter score", "setting": "[1]; pH 6, modulator: ogerin", "result": -0.938}, {"measurement": "cAMP reporter score", "setting": "[1]; pH 6.5, modulator: ogerin", "result": -1.88}, {"measurement": "surface expression score", "setting": "[2]", "result": -1.16}]}
{"variant": "W181_R183del", "values": [{"measurement": "cAMP reporter score", "setting": "[1]; pH 5.5", "result": -1.46}, {"measurement": "cAMP reporter score", "setting": "[1]; pH 6", "result": -1.42}, {"measurement": "cAMP reporter score", "setting": "[1]; pH 6, modulator: ogerin", "result": -1.77}, {"measurement": "cAMP reporter score", "setting": "[1]; pH 6.5, modulator: ogerin", "result": -1.62}, {"measurement": "surface expression score", "setting": "[2]", "result": -2.02}]}
{"variant": "W181del", "values": [{"measurement": "cAMP reporter score", "setting": "[1]; pH 5.5", "result": -1.43}, {"measurement": "cAMP reporter score", "setting": "[1]; pH 6", "result": -1.38}, {"measurement": "cAMP reporter score", "setting": "[1]; pH 6.5, modulator: ogerin", "result": -1.41}, {"measurement": "surface expression score", "setting": "[2]", "result": -0.452}]}
{"variant": "MGNITADNSSMSCTIDHTIHQTLAPVVYVTVLVVGFPANCLSLYFGYLQIKARNELGVYLCNLTVADLFYICSLPFWLQYVLQHDNWSHGDLSCQVCGILLYENIYISVGFLCCISVDRYLAVAHPFRFHQFRTLKAAVGVSVVIWAKELLTSIYFLMHEEVIEDENQHRVCFEHYPIQAWARAINYYRFLVGFLFPICLLLASYQGILRAVRRSHGTQKSRKDQIQRLVLSTVVIFLACFLPYHVLLLVRSVWEASCDFAKGVFNAYHFSLLLTSFNCVADPVLYCFVSETTHRDLARLRGACLAFLTCSRTGRAREAYPLGAPEASGKSGAQGEEPELLTKLHPAFQTPNSPGSGGFPTGRLA", "note": "[Q182A]", "values": [{"measurement": "cAMP reporter score", "setting": "[1]; pH 5.5", "result": -0.119}, {"measurement": "cAMP reporter score", "setting": "[1]; pH 6", "result": 0.156}, {"measurement": "cAMP reporter score", "setting": "[1]; pH 6, modulator: ogerin", "result": -0.383}, {"measurement": "cAMP reporter score", "setting": "[1]; pH 6.5, modulator: ogerin", "result": -1.08}, {"measurement": "surface expression score", "setting": "[2]", "result": -0.211}]}
{"variant": "MGNITADNSSMSCTIDHTIHQTLAPVVYVTVLVVGFPANCLSLYFGYLQIKARNELGVYLCNLTVADLFYICSLPFWLQYVLQHDNWSHGDLSCQVCGILLYENIYISVGFLCCISVDRYLAVAHPFRFHQFRTLKAAVGVSVVIWAKELLTSIYFLMHEEVIEDENQHRVCFEHYPIQAWCRAINYYRFLVGFLFPICLLLASYQGILRAVRRSHGTQKSRKDQIQRLVLSTVVIFLACFLPYHVLLLVRSVWEASCDFAKGVFNAYHFSLLLTSFNCVADPVLYCFVSETTHRDLARLRGACLAFLTCSRTGRAREAYPLGAPEASGKSGAQGEEPELLTKLHPAFQTPNSPGSGGFPTGRLA", "note": "[Q182C]", "values": [{"measurement": "cAMP reporter score", "setting": "[1]; pH 5.5", "result": -0.186}, {"measurement": "cAMP reporter score", "setting": "[1]; pH 6", "result": -0.764}, {"measurement": "cAMP reporter score", "setting": "[1]; pH 6, modulator: ogerin", "result": -0.917}, {"measurement": "cAMP reporter score", "setting": "[1]; pH 6.5, modulator: ogerin", "result": -0.704}, {"measurement": "surface expression score", "setting": "[2]", "result": -1.62}]}
{"variant": "MGNITADNSSMSCTIDHTIHQTLAPVVYVTVLVVGFPANCLSLYFGYLQIKARNELGVYLCNLTVADLFYICSLPFWLQYVLQHDNWSHGDLSCQVCGILLYENIYISVGFLCCISVDRYLAVAHPFRFHQFRTLKAAVGVSVVIWAKELLTSIYFLMHEEVIEDENQHRVCFEHYPIQAWDRAINYYRFLVGFLFPICLLLASYQGILRAVRRSHGTQKSRKDQIQRLVLSTVVIFLACFLPYHVLLLVRSVWEASCDFAKGVFNAYHFSLLLTSFNCVADPVLYCFVSETTHRDLARLRGACLAFLTCSRTGRAREAYPLGAPEASGKSGAQGEEPELLTKLHPAFQTPNSPGSGGFPTGRLA", "note": "[Q182D]", "values": [{"measurement": "cAMP reporter score", "setting": "[1]; pH 5.5", "result": -0.671}, {"measurement": "cAMP reporter score", "setting": "[1]; pH 6", "result": -1.25}, {"measurement": "cAMP reporter score", "setting": "[1]; pH 6, modulator: ogerin", "result": -1.72}, {"measurement": "cAMP reporter score", "setting": "[1]; pH 6.5, modulator: ogerin", "result": -0.989}, {"measurement": "surface expression score", "setting": "[2]", "result": -0.06}]}
{"variant": "MGNITADNSSMSCTIDHTIHQTLAPVVYVTVLVVGFPANCLSLYFGYLQIKARNELGVYLCNLTVADLFYICSLPFWLQYVLQHDNWSHGDLSCQVCGILLYENIYISVGFLCCISVDRYLAVAHPFRFHQFRTLKAAVGVSVVIWAKELLTSIYFLMHEEVIEDENQHRVCFEHYPIQAWERAINYYRFLVGFLFPICLLLASYQGILRAVRRSHGTQKSRKDQIQRLVLSTVVIFLACFLPYHVLLLVRSVWEASCDFAKGVFNAYHFSLLLTSFNCVADPVLYCFVSETTHRDLARLRGACLAFLTCSRTGRAREAYPLGAPEASGKSGAQGEEPELLTKLHPAFQTPNSPGSGGFPTGRLA", "note": "[Q182E]", "values": [{"measurement": "cAMP reporter score", "setting": "[1]; pH 5.5", "result": 0.019}, {"measurement": "cAMP reporter score", "setting": "[1]; pH 6", "result": 0.096}, {"measurement": "cAMP reporter score", "setting": "[1]; pH 6, modulator: ogerin", "result": -0.372}, {"measurement": "cAMP reporter score", "setting": "[1]; pH 6.5, modulator: ogerin", "result": 0.753}, {"measurement": "surface expression score", "setting": "[2]", "result": -0.583}]}
